# Measurements published in the supplement of paper PMC8728848.
# This is one part of the list.
# B1: SEX4 (Arabidopsis thaliana), Q944A8 (protein)
# chain: TQAMGAVLTYRHELGMNYNFIRPDLIVGSCLQTPEDVDKLRKIGVKTIFCLQQDPDLEYFGVDISSIQAYAKKYSDIQHIRCEIRDFDAFDLRMRLPAVVGTLYKAVKRNGGVTYVHCTAGMGRAPAVALTYMFWVQGYKLMEAHKLLMSKRSCFPKLDAIRNATIDILTGLKRKTVTLTLKDKGFSRVEISGLDIGWGQRIPLTLGKGTGFWILKRELPEGQFEYKYIIDGEWTHNEAEPFIGPNKDGHTNNYAKVVDDPTSVDGTTRERLSSEDPELLEEERSKLIQFLETCSEAEV
# How the values were obtained:
# Assay in all cases: glycan array binding signal (z-score within array); higher = stronger binding
# Conditions in all cases: glycan notation: IUPAC condensed, linker removed
# [1] = biological target: Gal(b1-4)GlcNAc(b1-6)[Gal(b1-3)]GalNAc
# Summary of the method: (§1)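 The binding signal is a Z-score computed within each array and averaged over linkers. Arrays of the same protein sequence at different concentrations or buffers were also averaged together. Data originate from 3228 arrays in the Consortium for Functional Glycomics database, kept only where the protein sequence was available.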
# Gal(b1-6)Gal = biological target: Gal(b1-6)Gal
# Summary of the method: as §1
# Gal3S(b1-3)GalNAc = biological target: Gal3S(b1-3)GalNAc
# Summary of the method: as §1
# Gal3S(b1-3)GlcNAc = biological target: Gal3S(b1-3)GlcNAc
# Summary of the method: as §1
# [2] = biological target: Gal3S(b1-3)[Fuc(a1-4)]GlcNAc
# Summary of the method: as §1
# Gal3S(b1-4)Glc = biological target: Gal3S(b1-4)Glc
# Summary of the method: as §1
# Gal3S(b1-4)Glc6S = biological target: Gal3S(b1-4)Glc6S
# Summary of the method: as §1
# Gal3S(b1-4)GlcNAc = biological target: Gal3S(b1-4)GlcNAc
# Summary of the method: as §1
# Gal3S(b1-4)GlcNAc6S = biological target: Gal3S(b1-4)GlcNAc6S
# Summary of the method: as §1
# [3] = biological target: Gal3S(b1-4)[Fuc(a1-3)]Glc
# Summary of the method: as §1
# [4] = biological target: Gal3S(b1-4)[Fuc(a1-3)]Glc6S
# Summary of the method: as §1
# Gal3S4S(b1-4)GlcNAc = biological target: Gal3S4S(b1-4)GlcNAc
# Summary of the method: as §1
# Gal3S6S(b1-4)GlcNAc = biological target: Gal3S6S(b1-4)GlcNAc
# Summary of the method: as §1
# Gal3S6S(b1-4)GlcNAc6S = biological target: Gal3S6S(b1-4)GlcNAc6S
# Summary of the method: as §1
# Gal4S(b1-4)GlcNAc = biological target: Gal4S(b1-4)GlcNAc
# Summary of the method: as §1
# Gal4S6S(b1-4)GlcNAc = biological target: Gal4S6S(b1-4)GlcNAc
# Summary of the method: as §1
# Gal6S(b1-3)GlcNAc = biological target: Gal6S(b1-3)GlcNAc
# Summary of the method: as §1
# Gal6S(b1-3)GlcNAc6S = biological target: Gal6S(b1-3)GlcNAc6S
# Summary of the method: as §1
# Gal6S(b1-4)Glc = biological target: Gal6S(b1-4)Glc
# Summary of the method: as §1
# Gal6S(b1-4)Glc6S = biological target: Gal6S(b1-4)Glc6S
# Summary of the method: as §1
# Gal6S(b1-4)GlcNAc = biological target: Gal6S(b1-4)GlcNAc
# Summary of the method: as §1
# Gal6S(b1-4)GlcNAc6S = biological target: Gal6S(b1-4)GlcNAc6S
# Summary of the method: as §1
# GalNAc(a1-3)Gal = biological target: GalNAc(a1-3)Gal
# Summary of the method: as §1
# GalNAc(a1-3)GalNAc = biological target: GalNAc(a1-3)GalNAc
# Summary of the method: as §1
# [5] = biological target: GalNAc(a1-3)GalNAc(a1-3)Gal(a1-4)Gal(b1-4)GlcNAc
# Summary of the method: as §1
# [6] = biological target: GalNAc(a1-3)GalNAc(b1-3)Gal(a1-4)Gal(b1-4)Glc
# Summary of the method: as §1
# GalNAc(b1-3)Gal = biological target: GalNAc(b1-3)Gal
# Summary of the method: as §1
# [7] = biological target: GalNAc(b1-3)Gal(a1-4)Gal(b1-4)GlcNAc
# Summary of the method: as §1
# [8] = biological target: GalNAc(b1-3)Gal(a1-4)Gal(b1-4)GlcNAc(b1-3)Gal(b1-4)Glc
# Summary of the method: as §1
# [9] = biological target: GalNAc(b1-3)Gal(a1-6)Gal(b1-4)Glc
# Summary of the method: as §1
# GalNAc(b1-3)GalNAc = biological target: GalNAc(b1-3)GalNAc
# Summary of the method: as §1
# GalNAc(b1-4)GlcNAc = biological target: GalNAc(b1-4)GlcNAc
# Summary of the method: as §1
# [10] = biological target: GalNAc(b1-4)GlcNAc(b1-2)Man(a1-3)[GalNAc(b1-4)GlcNAc(b1-2)Man(a1-6)]Man(b1-4)GlcNAc(b1-4)GlcNAc
# Summary of the method: as §1
# GalNAc(b1-6)GalNAc = biological target: GalNAc(b1-6)GalNAc
# Summary of the method: as §1
# Glc(a1-4)Glc = biological target: Glc(a1-4)Glc
# Summary of the method: as §1
# Glc(a1-6)Glc(a1-6)Glc = biological target: Glc(a1-6)Glc(a1-6)Glc
# Summary of the method: as §1
# Glc(b1-4)Glc = biological target: Glc(b1-4)Glc
# Summary of the method: as §1
binder,measurement,setting,value
B1,glycan array binding signal (z-score),[1],0.217
same,glycan array binding signal (z-score),Gal(b1-6)Gal,-0.165
same,glycan array binding signal (z-score),Gal3S(b1-3)GalNAc,-0.502
same,glycan array binding signal (z-score),Gal3S(b1-3)GlcNAc,-0.45
same,glycan array binding signal (z-score),[2],-0.443
same,glycan array binding signal (z-score),Gal3S(b1-4)Glc,-0.369
same,glycan array binding signal (z-score),Gal3S(b1-4)Glc6S,1.2
same,glycan array binding signal (z-score),Gal3S(b1-4)GlcNAc,-0.489
same,glycan array binding signal (z-score),Gal3S(b1-4)GlcNAc6S,0.229
same,glycan array binding signal (z-score),[3],0.333
same,glycan array binding signal (z-score),[4],1.79
same,glycan array binding signal (z-score),Gal3S4S(b1-4)GlcNAc,0.253
same,glycan array binding signal (z-score),Gal3S6S(b1-4)GlcNAc,-0.067
same,glycan array binding signal (z-score),Gal3S6S(b1-4)GlcNAc6S,2.76
same,glycan array binding signal (z-score),Gal4S(b1-4)GlcNAc,-0.381
same,glycan array binding signal (z-score),Gal4S6S(b1-4)GlcNAc,0.374
same,glycan array binding signal (z-score),Gal6S(b1-3)GlcNAc,-0.273
same,glycan array binding signal (z-score),Gal6S(b1-3)GlcNAc6S,1.27
same,glycan array binding signal (z-score),Gal6S(b1-4)Glc,0.288
same,glycan array binding signal (z-score),Gal6S(b1-4)Glc6S,1.62
same,glycan array binding signal (z-score),Gal6S(b1-4)GlcNAc,0.104
same,glycan array binding signal (z-score),Gal6S(b1-4)GlcNAc6S,0.852
same,glycan array binding signal (z-score),GalNAc(a1-3)Gal,-0.582
same,glycan array binding signal (z-score),GalNAc(a1-3)GalNAc,-0.542
same,glycan array binding signal (z-score),[5],-0.189
same,glycan array binding signal (z-score),[6],-0.507
same,glycan array binding signal (z-score),GalNAc(b1-3)Gal,-0.521
same,glycan array binding signal (z-score),[7],-0.406
same,glycan array binding signal (z-score),[8],-0.129
same,glycan array binding signal (z-score),[9],-0.059
same,glycan array binding signal (z-score),GalNAc(b1-3)GalNAc,-0.534
same,glycan array binding signal (z-score),GalNAc(b1-4)GlcNAc,-0.505
same,glycan array binding signal (z-score),[10],0.582
same,glycan array binding signal (z-score),GalNAc(b1-6)GalNAc,-0.455
same,glycan array binding signal (z-score),Glc(a1-4)Glc,-0.393
same,glycan array binding signal (z-score),Glc(a1-6)Glc(a1-6)Glc,-0.414
same,glycan array binding signal (z-score),Glc(b1-4)Glc,-0.561
